# Laboratory results as given in PubChem BioAssay AID588855 (National Center for Advancing Translational Sciences (NCATS), 2011).
# Out of some 410,000 compounds screened, about 5,000 (1.2%) were called active. This list was built around the results that the source calls inconclusive (neither active nor inactive); the mix of calls is not that of the screen. Calls follow the shape of the dose curve; as a rule, active = well fitted inhibition curve with a large enough effect; inconclusive = small, poorly fitted or top-dose-only effect; inactive = no such curve, though single readings can be large or run the other way. Potencies beside an inconclusive call are fits to weak or partial responses and may not hold up.
# Assay: qHTS for Inhibitors of TGF-b; also: nearly all actives have a fitted effect of over 65% in size
# Conditions: HepG2 CAGA-GFP TGF-b/SMAD3 reporter, GFP fluorescence, 18 h, TGF-beta stimulated, 500 pg/mL final; series mostly up to 46.1 µM; activity, negative = inhibition: at the top concentration
# Summary of the method: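 Read-out: total well GFP (ex488/em500-530) summed from mean per-cell fluorescence. Cells: HEPG2 CAGA-GFP, 1% FBS DMEM, 18 h at 37 degrees C with 500 pg/mL final TGF-beta. Unstimulated wells served as the full-inhibition control; stimulated DMSO wells = 0%.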
# % is scaled to controls: 0 for no effect and ±100 for the full control effect; potency is read from the fitted curve at half-maximal effect; tags tell the direction and shape of the fitted curve.
Compound,Potency,"activity, negative = inhibition"
NC(Cc1ccc(Cl)cc1)c1csc(Nc2nccc(C(F)(F)F)n2)n1 (centres undefined),"inconclusive: 25.1 µM [inhibitor, single point]",–
O=C(N/N=C/c1c[nH]c2ccccc12)C1CC1(c1ccccc1)c1ccccc1 (centres undefined),"inconclusive: 35.5 µM [inhibitor, single point]",–
CC1CCn2c(nc3cc(C(=O)NCc4ccc(OC(C)C)cc4)ccc32)C1 (centres undefined),"inconclusive: 15.8 µM [inhibitor, single point]",–
Cc1cccnc1NC(=O)C1CCCN(S(=O)(=O)c2ccc3c(c2)oc(=O)n3C)C1 (centres undefined),"inconclusive: 3.98 µM [inhibitor, single point]",–
CC1(C)CC(c2nc(-c3ccc(Cl)cc3)cs2)CCS1 (centres undefined),"inconclusive: 25.1 µM [inhibitor, single point]",–
CCC(C)Sc1cccc(-c2nc3ccccn3c2NCc2ccccc2)c1 (centres undefined),"inconclusive: 35.5 µM [inhibitor, single point]",–
COc1ccc(N(C(=O)CCl)C(C(=O)NC2CCCCC2)c2cccnc2)cc1 (centres undefined),active: 8.91 µM,–
CCOC(=O)CC(NS(=O)(=O)c1ccc(OC)c(C)c1)c1cccc([N+](=O)[O-])c1 (centres undefined),–,inactive: 2.09%
COCCNC(=O)Cn1cc(C(=O)c2cccs2)c2ccccc21,"inconclusive: 0.398 µM [inhibitor, full curve]",–
COc1ccccc1N1CCN(C(CNC(=O)C(=O)NCc2ccc(F)cc2)c2cccnc2)CC1 (centres undefined),"inconclusive: 11.2 µM [inhibitor, single point]",–
COC(=O)c1sc(=S)sc1C(=O)OC,"inconclusive: 14.1 µM [inhibitor, single point]",–
c1ccc2c(c1)CCc1c-2nc2ccccc2c1N1CCOCC1,"inconclusive: 35.5 µM [inhibitor, single point]",–
Cc1ccc(-c2c(C(=O)N3CCN(c4cc(Cl)ccc4C)CC3)oc(=O)c3ccccc23)cc1,–,inactive: 0.442%
Cc1cccc(NNC(=S)Nc2c(C)cccc2C)c1,"inconclusive: 11.2 µM [inhibitor, partial curve]",–
COc1ccc(C)cc1NC(=O)c1cc2c(=O)n(Cc3cccnc3)ccc2nc1C,–,inactive: 26.5%
Cc1cccc(COCC(Cc2ccccc2)N2CCN(C(=O)c3ccc(Cl)c(Cl)c3)CCC2=O)c1 (centres undefined),"inconclusive: 10 µM [inhibitor, partial curve, poor fit]",–
CCOc1ccc(CCNC(=O)COC(=O)c2cccc(S(=O)(=O)N3CCOCC3)c2)cc1OCC,–,inactive: -3.49%
O=C(CSc1cn(CCNC(=O)c2c(F)cccc2F)c2ccccc12)Nc1ccc(F)cc1,"inconclusive: 11.2 µM [inhibitor, partial curve, poor fit]",–
CCOC(=O)C1=C(C)NC(C)=C(C(=O)OC)C1c1cccc([N+](=O)[O-])c1 (centres undefined),–,inactive: -14.7%
CCOC(=O)C1=CCN(S(=O)(=O)c2ccccc2Cl)C1c1ccc(Cl)c(Cl)c1 (centres undefined),"inconclusive: 25.1 µM [inhibitor, single point]",–
CC(C)CCNC(=O)CN(CCCN1CCOCC1)C(=O)Cn1nnc(-c2ccc(F)cc2)n1,"inconclusive: 35.5 µM [inhibitor, single point]",–
CCN(CC)S(=O)(=O)c1cccc(C(=O)Nc2sc3c(c2C#N)CCC(C)C3)c1 (centres undefined),–,inactive: -19.2%
CCOC(=O)CNC(=O)CSc1nc(Cc2cccs2)nc2ccccc12,"inconclusive: 25.1 µM [inhibitor, single point]",–

Compound,Potency,"activity, negative = inhibition"
COc1ccc(-n2ncc(C(=O)N3CCN(c4cc(C)ccc4C)CC3)c2C2CCN(C(=O)OC(C)(C)C)CC2)cc1,–,inactive: 0%
COc1ccc(Nc2cc(C)c3cc(NC(=O)Cc4ccc(Cl)cc4)ccc3n2)cc1,"inconclusive: 35.5 µM [inhibitor, single point]",–
Cc1ccc(Cl)cc1N1CCN(c2ncnc3c2nc2n3CCCCC2)CC1,"inconclusive: 31.6 µM [inhibitor, partial curve, poor fit]",–
c1ccc(SSc2ccccn2)nc1,"inconclusive: 22.4 µM [inhibitor, partial curve, poor fit]",–
COc1ccc(Cl)cc1NC(=O)C1CCN(S(=O)(=O)c2ccc3c(c2)CC(C)N3C(C)=O)CC1 (centres undefined),"inconclusive: 22.4 µM [inhibitor, single point]",–
COc1ccc(CS(=O)(=O)/C(Cl)=C(/Cl)C(=O)Nc2ccc(OC)nc2)cc1,"inconclusive: 35.5 µM [inhibitor, single point]",–
O=C(Nc1ccc2ccccc2c1)c1nc(S(=O)(=O)Cc2ccccc2F)ncc1Cl,"inconclusive: 22.4 µM [inhibitor, single point]",–
COC(=O)c1sc2ccccc2c1NC(=O)c1ccc(S(=O)(=O)N2CCCCC2)cc1,–,inactive: 6.93%
COC(=O)c1ccc(Cn2nnc3c(=O)[nH]c(C4CCN(S(=O)(=O)c5ccc(F)cc5)CC4)nc32)cc1,"inconclusive: 3.16 µM [inhibitor, single point]",–
Cc1ccc(S(=O)(=O)NCCC(=O)NCC(c2cccs2)N(C)C)cc1 (centres undefined),–,inactive: -11.6%
Cc1cc(C(=O)O)ccc1-n1c(C)cc(/C=C2\SC(=O)NC2=O)c1C,–,inactive: -2.68%
C/C=C\C=C/C(=O)Nc1cccc(C2=NOC3(C2)C[C@@H](C(N)=O)N(C(=O)COc2ccc(Cl)cc2)C3)c1 (some centres undefined),"inconclusive: 0.562 µM [inhibitor, partial curve, poor fit]",–
COc1cc(Br)ccc1NC(=O)c1ccccc1-c1ccccc1C(=O)O,–,inactive: -7.02%
CC1(C(=O)Nc2cccc(Oc3ccccc3)c2)Cc2c(-c3ccc4c(c3)OCO4)ccnc2O1 (centres undefined),"inconclusive: 35.5 µM [inhibitor, single point]",–
Cc1cccc(CN2C(=O)[C@H]3Cc4c([nH]c5ccccc45)C(C)(C)N3C2=O)c1,active: 11.2 µM,–
CCOC(=O)CCCNC(=O)c1cncc(Br)c1,–,inactive: 3.62%
COc1ccc(NC(=O)COC(=O)CN2C(=O)c3ccccc3C2=O)cc1,–,inactive: 0.483%
O=C1C(Cl)=C(NCCN2CCOCC2)C(=O)c2ccccc21,"inconclusive: 35.5 µM [inhibitor, single point]",–
Cc1cccc(CNC(=O)c2ccc3oc(=O)n(Cc4ccccc4)c3c2)c1,–,inactive: -5.98%
Cc1ccccc1NC(=O)CC1(c2ccc(N(C)C)cc2)C(=O)c2ccccc2C1=O,–,inactive: 1.08%
CCCOc1ccc(CNC(=O)CCCn2nc(C)c3sc4ccccc4c3c2=O)cc1,–,inactive: 18.7%
Cc1cc(C)c(S(=O)(=O)N2CCc3ccccc32)c(C)c1,"inconclusive: 8.91 µM [inhibitor, partial curve, poor fit]",–
COc1cc(CNc2nc(C)c([N+](=O)[O-])c(C)c2C#N)cc(OC)c1OC,–,inactive: -1.66%

Compound,Potency,"activity, negative = inhibition"
COc1cccc(CNc2nc(NCC3CC3)nc3ccsc23)c1OC,"inconclusive: 35.5 µM [inhibitor, single point]",–
O=c1c(C(c2ccccc2)c2c(O)sc3ccccc3c2=O)c(O)sc2ccccc12,–,inactive: -4.37%
Cc1ccc(NC(=O)C2CC(=O)N(Cc3ccccc3)C2)cc1S(=O)(=O)N1CCCCCC1 (centres undefined),"inconclusive: 0.562 µM [inhibitor, full curve, poor fit]",–
CCc1ccc(C(=O)N2CCC(c3nc(-c4ccc(S(=O)(=O)N5CCCC5)cc4)no3)CC2)cc1,"inconclusive: 6.31 µM [inhibitor, partial curve, poor fit]",–
O=C(O)c1ccc(CNCc2ccccc2Cl)s1,–,inactive: 10.1%
CCN(c1cccc(C)c1)S(=O)(=O)c1nnc(NC(=O)c2ccco2)s1,"inconclusive: 35.5 µM [inhibitor, single point]",–
CC(C)(C)c1cc(Cc2ccccc2)[nH]n1,–,inactive: 4.14%
CN(C)c1ccc(NC(=O)Nc2ccc3snnc3c2)cc1,"inconclusive: 6.31 µM [inhibitor, single point]",–
C/C=C/NNC(=O)Cc1ccc(OC)cc1,"inconclusive: 35.5 µM [inhibitor, single point]",–
CC(=O)Nc1cccc(C(=O)/C=C/c2cccs2)c1,"inconclusive: 35.5 µM [inhibitor, single point]",–
CC1CCc2nc(/C(C#N)=C/c3cccnc3)sc2C1 (centres undefined),"inconclusive: 12.6 µM [inhibitor, single point]",–
Fc1ccccc1C1CC(c2ccco2)=Nc2ccccc2S1 (centres undefined),active: 17.8 µM,–
CCCCOCCCN1CC(=O)N2[C@@H](Cc3c([nH]c4ccccc34)C2(C)C)C1=O,"inconclusive: 35.5 µM [inhibitor, single point]",–
Cc1ccc(C)c(NCc2n[nH]c(=S)n2-c2ccccc2)c1,–,inactive: 10.1%
CN(C)c1ccc(C2NC(=O)c3ccccc3N2)cc1 (centres undefined),–,inactive: 0%
CCOc1ccc2nc(N3CCC(C(=O)NCCCN4CCOCC4)CC3)sc2c1,–,inactive: 8.8%
Cc1cc(C)c(S(=O)(=O)N2CCCCC2CCNC(=O)C(=O)NCCN2CCOCC2)c(C)c1 (centres undefined),–,inactive: -3.4%
Cc1onc(-c2ccccc2Cl)c1C(=O)Oc1cc(N)n(S(=O)(=O)c2ccc(F)cc2)n1,"inconclusive: 35.5 µM [inhibitor, single point]",–
CN1CCN(C(=S)NCCc2ccccc2)CC1,–,inactive: -12.5%
Cc1ccc(NCC(=O)N/N=C\C(Br)=C\c2ccccc2)cc1,"inconclusive: 35.5 µM [inhibitor, single point]",–
CCC1(c2ccc(F)cc2)NC(=O)N(CC(=O)NCC(=O)Nc2cccc(C)c2C)C1=O (centres undefined),"inconclusive: 10 µM [inhibitor, partial curve, poor fit]",–
COc1cccc(C(=O)C2CCCN(Cc3ccc(OC)c(Cn4cncn4)c3)C2)c1 (centres undefined),"inconclusive: 5.62 µM [inhibitor, single point]",–
CCOC(=O)N1CCC(NC(=O)c2ccc3c(c2)N(Cc2ccc(Cl)cc2)C(=O)c2ccccc2S3(=O)=O)CC1,"inconclusive: 2.51 µM [inhibitor, full curve, poor fit]",–
